We go through 89 molecules from PubChem BioAssay AID1508642 (National Center for Advancing Translational Sciences (NCATS), 2021).

Each structure is given as a SMILES string. The campaign covered roughly 43,000 compounds. About 200 (0.47%) were called active. Roughly 12% stayed inconclusive and do not appear here. Calls come from the whole dose curve; as a rule, active = well fitted cell-killing curve with a large enough effect; inconclusive = small, poorly fitted or top-dose-only effect, or effect the other way; inactive = flat fitted curve, though single readings scatter. Some of the results follow.
% is set by controls: 0 for no effect and ±100 for the full control effect.

The assay is described as follows: Cell viability qHTS assay in S16 Pmp22-F2sN cells. Note: nearly all actives have a fitted effect of over 65% in size. To be noted: S16 Pmp22-F2sN Schwann cells viability, CellTiter-Glo, 24 h; at 57.5 µM (top of the series). An outline of the steps: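 Used to flag compounds lowering reporter output through toxicity, this quantitative HTS measures ATP-based CellTiter-Glo luminescence in S16 Pmp22-F2sN Schwann cells after 24 h compound exposure at 37C.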
(qHTS replaces the single test concentration by a dilution series.)
With `COc1ccccc1CN1CCN(C(=O)COc2cccc(C)c2)CC1`, the activity change, negative = cytotoxicity was inactive: 1.93%. The result for `CCOc1ccc(CN(CCc2ccc3c(c2)OCO3)Cc2cccc(Br)c2)cc1` reads inactive: 12.5%; that for `O=C(COc1ccccc1Cl)N1CCN(CCc2ccccn2)CC1`, inactive: 6.52%; that for `Cc1nnc(NC(=O)c2cccn(Cc3ccccc3)c2=O)s1`, inactive: 5.17%. The result for `Cc1cccc(OC(C)C(=O)NCC2(N(C)C)CCCCC2)c1C` (centres undefined) reads inactive: 8.48%; that for `O=C(Nc1nc2ccccc2s1)c1cccn(Cc2ccccc2)c1=O`, inactive: 14.2%; that for `CCCc1nc(SC)ncc1C(=O)Nc1ccc(Cl)cc1C(=O)c1ccccc1`, inactive: 9.76%. As to `Cc1ccc(-n2c(/C=C/c3cccc(C(F)(F)F)c3)nc3ccccc3c2=O)cc1`, the activity change, negative = cytotoxicity was inactive: 1%. Under `NC(=O)c1ccc(NC(=O)c2cccn(Cc3ccccc3)c2=O)cc1` stands inactive: -1.13%. Under `CCOc1ccc(CN2C(=O)c3ccccc3Sc3ccc(C(=O)N4CCC5(CC4)OCCO5)cc32)cc1` stands inactive: 20.6%; under `Cc1c(C(c2ccc(O)cc2)c2c(O)c3ccccc3oc2=O)c(=O)n(-c2ccccc2)n1C` (centres undefined), inactive: 4.14%; under `CCSc1nnc(NC(=O)c2cccn(Cc3ccc(Cl)cc3)c2=O)s1`, inactive: 1.3%. For `O=c1c2ccccc2nc(/C=C\c2cccc(Br)c2)n1-c1ccc(O)cc1`, the activity change, negative = cytotoxicity was inactive: -2.94%. On to `Cc1ccc2scc(N3CCN(C)CC3)c(=O)c2c1`, for which the activity change, negative = cytotoxicity was inactive: 6.04%. The result for `Cc1ccc(-n2c(/C=C/c3ccccc3)nc3ccccc3c2=O)cc1C` reads inactive: -10.2%. Consider `CCn1c(CN2CCN(C)CC2)nc2ccccc21`, for which the activity change, negative = cytotoxicity was inactive: 8.59%. Turning to `O=C(c1ccc2c(c1)N(Cc1c(F)cccc1Cl)C(=O)c1ccccc1S2)N1CCC2(CC1)OCCO2`, the activity change, negative = cytotoxicity is inactive: 16.9%. For `Cc1ccc(C)c(CN2C(=O)c3ccccc3Sc3ccc(C(=O)N4CCC5(CC4)OCCO5)cc32)c1`, the activity change, negative = cytotoxicity was inactive: -27.7%. On to `CCOC(=O)c1ccc(NC(=O)CSc2nc3c(cc2C#N)N2CCC3CC2)cc1`, for which the activity change, negative = cytotoxicity is inactive: 21.1%. Consider `Cc1cccc(Cn2cccc(C(=O)Nc3nc4ccccc4s3)c2=O)c1`, for which the activity change, negative = cytotoxicity was inactive: 1.91%. Turning to `COc1cccc(-n2c(/C=C/c3cccc(C)c3)nc3ccccc3c2=O)c1`, the activity change, negative = cytotoxicity is inactive: 3.56%.

On to `Cc1cccc(-n2c(CC3C(=O)Nc4ccc(C)cc43)nc3ccccc3c2=O)c1` (centres undefined), for which the activity change, negative = cytotoxicity was inactive: 5.65%. The result for `Cc1ccc(-n2c(/C=C/c3cccc4ccccc34)nc3ccccc3c2=O)cc1` reads inactive: -5.96%; that for `O=C(Nc1ccccc1C(F)(F)F)c1cccn(Cc2ccccc2)c1=O`, inactive: 3.95%. Under `Cc1ccccc1-n1c(/C=C/c2ccccc2F)nc2ccccc2c1=O` stands inactive: 1.89%; under `COc1ccc(OC)c(C(c2c(O)c3ccccc3oc2=O)c2c(C)n(C)n(-c3ccccc3)c2=O)c1` (centres undefined), inactive: -7.73%.

In the case of `CC(C)c1ccc(OCC(=O)N2CCN(CCc3ccncc3)CC2)cc1`, the activity change, negative = cytotoxicity is inactive: 4.59%.

Take `CCOc1ccc(CN(CCc2ccc3c(c2)OCO3)Cc2cc(OC)ccc2O)cc1`: the activity change, negative = cytotoxicity was inactive: 21.9%.

On to `Cc1cc(OCC(=O)N2CCN(CCc3ccncc3)CC2)ccc1Cl`, for which the activity change, negative = cytotoxicity is inactive: -10.1%.

On to `CSc1ccc(CN2CCN(C(=O)COc3cccc(C)c3)CC2)cc1`, for which the activity change, negative = cytotoxicity was inactive: -5.69%. Under `Cc1cccc(-n2c(/C=C/c3c[nH]c4ccccc34)nc3ccccc3c2=O)c1` stands inactive: 4%. The result for `Cc1cccc(Cn2cccc(C(=O)Nc3cc(C)on3)c2=O)c1` reads inactive: 6.12%; that for `CCOc1ccc(CN(CCc2ccc3c(c2)OCO3)Cc2cccc(C)c2)cc1`, inactive: 7.67%; that for `Cc1cc(OCC(=O)N2CCN(CCc3ccccn3)CC2)cc(C)c1Cl`, inactive: -0.629%. The result for `Cc1cccc(C2CC(=O)Oc3c2c(=O)oc2ccccc32)c1` (centres undefined) reads inactive: 1.93%; that for `COc1ccc(CN2CCN(C(=O)COc3ccccc3)CC2)c(OC)c1`, inactive: -16.4%; that for `Cc1cc(NC(=O)c2cccn(Cc3ccccc3)c2=O)no1`, inactive: 4.78%. Regarding `Cc1cccc2sc(NC(=O)c3cccn(Cc4ccccc4)c3=O)nc12`, the activity change, negative = cytotoxicity is inactive: -6.26%. The result for `Nc1c(C(=O)Nc2cccc(Br)c2)sc2nc3c(cc12)N1CCC3CC1` reads inactive: -23.9%; that for `COc1ccc(OCC(=O)N2CCN(Cc3cccc(OC)c3OC)CC2)cc1`, inactive: 0.461%. The result for `Cc1cc(C)cc(OCC(=O)Nc2ccc(Cl)cc2C(=O)c2ccccc2)c1` reads inactive: 8.31%.

As for `O=S1(=O)N(Cc2ccccc2)CCCN1Cc1ccc(F)cc1Cl`, the activity change, negative = cytotoxicity is inactive: 0.759%. The result for `Cc1ccc(OCC(=O)Nc2ccc(Cl)cc2C(=O)c2ccccc2)cc1` reads inactive: -0.408%. The result for `O=C(Nc1ccc(Br)cc1C(=O)c1ccccc1)c1ccccc1` reads inactive: 20.1%. `COC(=O)c1ccc(NC(=O)c2cccn(Cc3ccccc3C)c2=O)cc1`: the activity change, negative = cytotoxicity is inactive: 1.99%. As to `O=c1c2ccccc2nc(/C=C/c2ccccc2)n1-c1ccccc1F`, the activity change, negative = cytotoxicity is inactive: -1.27%.

`Cc1nnc(NC(=O)c2cccn(Cc3cccc(Cl)c3)c2=O)s1`: the activity change, negative = cytotoxicity is inactive: -0.131%. Take `COc1cc(C(c2c(O)c3ccccc3oc2=O)c2c(C)n(C)n(-c3ccccc3)c2=O)ccc1O` (centres undefined): the activity change, negative = cytotoxicity is inactive: 7.18%.

With `CN1CCN(c2oc(-c3ccc(COc4ccccc4)o3)nc2C#N)CC1`, the activity change, negative = cytotoxicity is inactive: -0.02%. Under `Cn1cc(/C=C/c2nc3ccccc3c(=O)n2-c2ccccc2)c2ccccc21` stands inactive: 3.21%; under `O=C(Nc1ccc2c(c1)OCO2)c1cccn(Cc2cccc(F)c2)c1=O`, inactive: 4.69%. Under `Nc1c(C(=O)Nc2ccc(Cl)cc2)sc2nc3c(cc12)N1CCC3CC1` stands inactive: -24.6%. Consider `COc1ccccc1NC(=O)N(Cc1ccc2c(c1)OCO2)C1CCN(Cc2ccccc2)CC1`, for which the activity change, negative = cytotoxicity is inactive: -7.46%. `Nc1c(C(=O)Nc2ccc(Br)cc2F)sc2nc3c(cc12)N1CCC3CC1`: the activity change, negative = cytotoxicity was inactive: 3.07%. Regarding `Cc1cccc(-n2c(/C=C/c3c(C)[nH]c4ccccc34)nc3ccccc3c2=O)c1`, the activity change, negative = cytotoxicity was inactive: 27.4%. Take `COc1cc(C(c2c(O)c3ccccc3oc2=O)c2c(C)n(C)n(-c3ccccc3)c2=O)ccc1OCC(=O)O` (centres undefined): the activity change, negative = cytotoxicity was inactive: -2.08%. Under `O=C(Nc1ccc(Cl)cc1C(=O)c1ccccc1)c1ccccc1Br` stands inactive: 1.07%; under `Cc1c(Cl)cccc1NC(=O)CN1C(=O)C(C)N=C(c2ccccc2)c2ccccc21` (centres undefined), inactive: -0.358%.

For `CCOc1ccc2nc(NC(=O)c3cccn(Cc4ccc(Cl)cc4)c3=O)sc2c1`, the activity change, negative = cytotoxicity was inactive: 16.9%. For `COc1ccc(-c2nc(CN3C(=O)CN=C(c4ccccc4)c4cc(Cl)ccc43)c(C)o2)cc1`, the activity change, negative = cytotoxicity was inactive: -28.3%. As to `O=C(Nc1ccc2c(c1)OCCO2)c1cccn(Cc2cccc(F)c2)c1=O`, the activity change, negative = cytotoxicity is inactive: 6.47%.

For the molecule `CCc1ccccc1NC(=O)c1cccn(Cc2ccccc2F)c1=O`, the activity change, negative = cytotoxicity is inactive: 10.5%. With `CSc1ccc(CN2CCN(C(=O)COc3ccc(C)cc3)CC2)cc1`, the activity change, negative = cytotoxicity was inactive: -2.59%.

As for `CCOc1ccc2nc(NC(=O)c3cccn(Cc4ccccc4)c3=O)sc2c1`, the activity change, negative = cytotoxicity was inactive: 5.91%. The result for `O=C(Nc1ccc(Cl)cc1C(=O)c1ccccc1)c1cc(Cl)cc(Cl)c1` reads inactive: -1.05%; that for `Cc1ccc(-n2c(/C=C/c3cccs3)nc3ccccc3c2=O)cc1C`, inactive: -19.5%. For the molecule `CCCC12CN3CC(CCC)(CN(C1)C3c1ccccn1)C2=O` (centres undefined), the activity change, negative = cytotoxicity is inactive: -11%. The result for `CCN(CC)C(=O)c1ccc(NC(=O)Cn2nc(-c3ccc(C)cc3)c3ccccc3c2=O)cc1` reads inactive: 8.71%.

Turning to `Cc1ccc(Cn2cccc(C(=O)Nc3nnc(C)s3)c2=O)cc1`, the activity change, negative = cytotoxicity is inactive: 5.14%. The result for `CCOC(=O)c1ccc(NC(=O)c2cccn(Cc3ccc(C)cc3)c2=O)cc1` reads inactive: 1.94%.

Regarding `CC(C)(C)c1ccc(OCC(=O)Nc2ccc(Cl)cc2C(=O)c2ccccc2)cc1`, the activity change, negative = cytotoxicity was inactive: -6.59%.

As for `CCOc1ccccc1CN(CCc1ccc2c(c1)OCO2)Cc1ccc(CC)cc1`, the activity change, negative = cytotoxicity is inactive: 3.17%. With `CSc1ncc(C(=O)Nc2ccc(Cl)cc2C(=O)c2ccccc2)c(C)n1`, the activity change, negative = cytotoxicity was inactive: -6.36%.

With `COc1ccc(NC(C)=O)cc1NC(=O)c1cccn(Cc2ccccc2)c1=O`, the activity change, negative = cytotoxicity is inactive: 14.3%.

Take `Cc1nnc(NC(=O)c2cccn(Cc3cccc([N+](=O)[O-])c3)c2=O)s1`: the activity change, negative = cytotoxicity is inactive: -12.9%. On to `CCCC12CN3CC(C)(CN(C1)C3c1ccccn1)C2=O` (centres undefined), for which the activity change, negative = cytotoxicity was inactive: -16.6%.

Take `O=c1c2ccccc2nc(/C=C/c2ccccc2O)n1-c1ccc(Br)cc1`: the activity change, negative = cytotoxicity was inactive: 15.4%. The result for `CCOc1ccc(NC(=O)c2cccn(Cc3cccc(Cl)c3)c2=O)cc1` reads inactive: 3.99%; that for `N#Cc1cccc(NC(=O)c2sc3nc4c(cc3c2N)N2CCC4CC2)c1`, inactive: -24.7%. The result for `N#Cc1cc2c(nc1SCC(=O)Nc1ccc(F)c(Cl)c1)C1CCN2CC1` reads inactive: 6.8%; that for `O=C(Nc1ccc(Br)cc1C(=O)c1ccccc1Cl)c1ccccc1F`, inactive: -0.888%; that for `COc1ccc(CCNCc2ccc3c(c2)n(C)c(=O)n3C)cc1`, inactive: -1.3%. With `O=C1CC(c2ccc(F)cc2)c2c(c3ccccc3oc2=O)O1` (centres undefined), the activity change, negative = cytotoxicity was inactive: -0.799%.

Take `Cc1ccc(-c2nc(CN3C(=O)CN=C(c4ccccc4Cl)c4cc(Cl)ccc43)c(C)o2)cc1`: the activity change, negative = cytotoxicity was inactive: 2.53%.

Turning to `O=C(Nc1ccc2c(c1)OCCO2)c1cccn(Cc2ccccc2)c1=O`, the activity change, negative = cytotoxicity was inactive: 2.92%. The result for `Cc1cccc(Cn2cccc(C(=O)Nc3nnc(C)s3)c2=O)c1` reads inactive: 7.3%; that for `O=C1CC(c2ccc(C(F)(F)F)cc2)c2c(c3ccccc3oc2=O)O1` (centres undefined), inactive: 3.35%; that for `O=C(Nc1ccc2c(c1)OCO2)c1cccn(Cc2ccccc2)c1=O`, inactive: 7.25%. Consider `O=C(Nc1ccon1)c1cccn(Cc2cccc([N+](=O)[O-])c2)c1=O`, for which the activity change, negative = cytotoxicity was inactive: -8.8%.
